In patent US20210238308A1 (Chugai, published 2021):

T1: PRYSPRY domain of human TRIM21 with N-terminal 6xHis tag (human)
T1 construct: Expressed in E. coli; also called hTRIM21; human TRIM21.PRYSPRY
T1 chain: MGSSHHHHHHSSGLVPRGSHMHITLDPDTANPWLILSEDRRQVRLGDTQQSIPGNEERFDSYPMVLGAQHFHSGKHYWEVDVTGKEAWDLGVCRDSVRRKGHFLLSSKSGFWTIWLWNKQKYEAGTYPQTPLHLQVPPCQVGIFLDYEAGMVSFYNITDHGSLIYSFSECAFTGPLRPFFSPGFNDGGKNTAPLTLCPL

T2: PRYSPRY domain of mouse TRIM21 with N-terminal 6xHis tag (mouse)
T2 construct: Expressed in E. coli; also called mTRIM21; mouse TRIM21.PRYSPRY
T2 chain: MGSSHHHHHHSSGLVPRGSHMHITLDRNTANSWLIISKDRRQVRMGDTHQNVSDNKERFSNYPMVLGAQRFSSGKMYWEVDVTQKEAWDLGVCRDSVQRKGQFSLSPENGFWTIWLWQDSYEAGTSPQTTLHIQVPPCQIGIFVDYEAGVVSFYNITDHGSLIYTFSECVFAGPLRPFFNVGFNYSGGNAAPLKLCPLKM

B1: MRAH-G1d/MRAL-KT0 E345W (antibody, human IgG1, kappa)
heavy: QVQLQESGPGLVRPSQTLSLTCTVSGYSITSDHAWSWVRQPPGRGLEWIGYISYSGITTYNPSLKSRVTMLRDTSKNQFSLRLSSVTAADTAVYYCARSLARTTAMDYWGQGSLVTVSS[human IgG1 constant region with E345W (EU numbers) omitted here]
light: DIQMTQSPSSLSASVGDRVTITCRASQDISSYLNWYQQKPGKAPKLLIYYTSRLHSGVPSRFSGSGSGTDFTFTISSLQPEDIATYYCQQGNTLPYTFGQGTKVEIKRTVAAPSVFIFPPSDEQLKSGTASVVCLLNNFYPREAKVQWKVDNALQSGNSQESVTEQDSKDSTYSLSSTLTLSKADYEKHKVYACEVTHQGLSSPVTKSFNRGEC
B2: MRAH-G1d/MRAL-KT0 H433A (antibody, human IgG1, kappa)
heavy: QVQLQESGPGLVRPSQTLSLTCTVSGYSITSDHAWSWVRQPPGRGLEWIGYISYSGITTYNPSLKSRVTMLRDTSKNQFSLRLSSVTAADTAVYYCARSLARTTAMDYWGQGSLVTVSS[human IgG1 constant region with H433A (EU numbers) omitted here]
light: B1 light
notes: copies: 2 + 2
B3: MRAH-G1d/MRAL-KT0 H435L (antibody, human IgG1, kappa)
heavy: QVQLQESGPGLVRPSQTLSLTCTVSGYSITSDHAWSWVRQPPGRGLEWIGYISYSGITTYNPSLKSRVTMLRDTSKNQFSLRLSSVTAADTAVYYCARSLARTTAMDYWGQGSLVTVSS[human IgG1 constant region with H435L (EU numbers) omitted here]
light: B1 light
notes: copies: 2 + 2
B4: MRAH-G1d/MRAL-KT0 H433M (antibody, human IgG1, kappa)
heavy: QVQLQESGPGLVRPSQTLSLTCTVSGYSITSDHAWSWVRQPPGRGLEWIGYISYSGITTYNPSLKSRVTMLRDTSKNQFSLRLSSVTAADTAVYYCARSLARTTAMDYWGQGSLVTVSS[human IgG1 constant region with H433M (EU numbers) omitted here]
light: B1 light
notes: copies: 2 + 2
B5: MRAH-G1d/MRAL-KT0 H433V (antibody, human IgG1, kappa)
heavy: QVQLQESGPGLVRPSQTLSLTCTVSGYSITSDHAWSWVRQPPGRGLEWIGYISYSGITTYNPSLKSRVTMLRDTSKNQFSLRLSSVTAADTAVYYCARSLARTTAMDYWGQGSLVTVSS[human IgG1 constant region with H433V (EU numbers) omitted here]
light: B1 light
notes: copies: 2 + 2
B6: MRAH-G1d/MRAL-KT0 H435E (antibody, human IgG1, kappa)
heavy: QVQLQESGPGLVRPSQTLSLTCTVSGYSITSDHAWSWVRQPPGRGLEWIGYISYSGITTYNPSLKSRVTMLRDTSKNQFSLRLSSVTAADTAVYYCARSLARTTAMDYWGQGSLVTVSS[human IgG1 constant region with H435E (EU numbers) omitted here]
light: B1 light
notes: copies: 2 + 2
B7: MRAH-G1d/MRAL-KT0 H433G (antibody, human IgG1, kappa)
heavy: QVQLQESGPGLVRPSQTLSLTCTVSGYSITSDHAWSWVRQPPGRGLEWIGYISYSGITTYNPSLKSRVTMLRDTSKNQFSLRLSSVTAADTAVYYCARSLARTTAMDYWGQGSLVTVSS[human IgG1 constant region with H433G (EU numbers) omitted here]
light: B1 light
notes: copies: 2 + 2
B8: MRAH-G1d/MRAL-KT0 H433D (antibody, human IgG1, kappa)
heavy: QVQLQESGPGLVRPSQTLSLTCTVSGYSITSDHAWSWVRQPPGRGLEWIGYISYSGITTYNPSLKSRVTMLRDTSKNQFSLRLSSVTAADTAVYYCARSLARTTAMDYWGQGSLVTVSS[human IgG1 constant region with H433D (EU numbers) omitted here]
light: B1 light
notes: copies: 2 + 2
B9: MRAH-G1d/MRAL-KT0 H435G (antibody, human IgG1, kappa)
heavy: QVQLQESGPGLVRPSQTLSLTCTVSGYSITSDHAWSWVRQPPGRGLEWIGYISYSGITTYNPSLKSRVTMLRDTSKNQFSLRLSSVTAADTAVYYCARSLARTTAMDYWGQGSLVTVSS[human IgG1 constant region with H435G (EU numbers) omitted here]
light: B1 light
notes: copies: 2 + 2
B10: MRAH-G1d/MRAL-KT0 H433Q (antibody, human IgG1, kappa)
heavy: QVQLQESGPGLVRPSQTLSLTCTVSGYSITSDHAWSWVRQPPGRGLEWIGYISYSGITTYNPSLKSRVTMLRDTSKNQFSLRLSSVTAADTAVYYCARSLARTTAMDYWGQGSLVTVSS[human IgG1 constant region with H433Q (EU numbers) omitted here]
light: B1 light
notes: copies: 2 + 2
B11: MRAH-G1d/MRAL-KT0 H433Y (antibody, human IgG1, kappa)
heavy: QVQLQESGPGLVRPSQTLSLTCTVSGYSITSDHAWSWVRQPPGRGLEWIGYISYSGITTYNPSLKSRVTMLRDTSKNQFSLRLSSVTAADTAVYYCARSLARTTAMDYWGQGSLVTVSS[human IgG1 constant region with H433Y (EU numbers) omitted here]
light: B1 light
notes: copies: 2 + 2
B12: MRAH-G1d/MRAL-KT0 H433F (antibody, human IgG1, kappa)
heavy: QVQLQESGPGLVRPSQTLSLTCTVSGYSITSDHAWSWVRQPPGRGLEWIGYISYSGITTYNPSLKSRVTMLRDTSKNQFSLRLSSVTAADTAVYYCARSLARTTAMDYWGQGSLVTVSS[human IgG1 constant region with H433F (EU numbers) omitted here]
light: B1 light
notes: copies: 2 + 2
B13: MRAH-G1d/MRAL-KT0 H435K (antibody, human IgG1, kappa)
heavy: QVQLQESGPGLVRPSQTLSLTCTVSGYSITSDHAWSWVRQPPGRGLEWIGYISYSGITTYNPSLKSRVTMLRDTSKNQFSLRLSSVTAADTAVYYCARSLARTTAMDYWGQGSLVTVSS[human IgG1 constant region with H435K (EU numbers) omitted here]
light: B1 light
notes: copies: 2 + 2
B14: MRAH-G1d/MRAL-KT0 H435M (antibody, human IgG1, kappa)
heavy: QVQLQESGPGLVRPSQTLSLTCTVSGYSITSDHAWSWVRQPPGRGLEWIGYISYSGITTYNPSLKSRVTMLRDTSKNQFSLRLSSVTAADTAVYYCARSLARTTAMDYWGQGSLVTVSS[human IgG1 constant region with H435M (EU numbers) omitted here]
light: B1 light
notes: copies: 2 + 2

These binders were tested against T3, human FcRn (human, UniProt P55899 partial chain; P61769 partial chain, limits assumed) (assay: SPR, Protein L capture).
T3 construct: also called hFcRn

Row | hFcRn binding level ratio (variant/control antibody) | Binder
1 | 0.91 | B1
2 | 1.07 | B2
3 | 0.04 | B3
4 | 0.93 | B4
5 | 0.62 | B5
6 | 0.25 | B6
7 | 0.87 | B7
8 | 0.48 | B8
9 | 0.03 | B9
10 | 0.96 | B10
11 | 0.13 | B11
12 | 0.23 | B12
13 | 3.52 | B13
14 | 0.05 | B14

Molecular target: T1, PRYSPRY domain of human TRIM21 with …
Experiment: SPR, Protein L capture

Row | hTRIM21 binding level ratio (variant/control antibody) | binding result | Binder
15 | 0.516 | – | B1
16 | -0.054 | – | B2
17 | 0.01 | – | B3
18 | -0.004 | – | B4
19 | -0.101 | – | B5
20 | 0.229 | – | B6
21 | 0.015 | – | B7
22 | -0.009 | – | B8
23 | -0.008 | – | B9
24 | -0.005 | – | B10
25 | -0.008 | – | B11
26 | -0.06 | – | B12
27 | – | no binding (tested: 100 nM) | B13
28 | -0.032 | – | B14

Molecular target: T2, PRYSPRY domain of mouse TRIM21 with …
Experiment: SPR, Protein L capture

Row | mTRIM21 binding level ratio (variant/control antibody) | binding result | Binder
29 | 2.59 | – | B1
30 | -0.25 | – | B2
31 | 1.95 | – | B3
32 | -0.1 | – | B4
33 | -0.403 | – | B5
34 | 0.708 | – | B6
35 | -0.15 | – | B7
36 | -0.188 | – | B8
37 | 1.28 | – | B9
38 | -0.127 | – | B10
39 | -0.138 | – | B11
40 | -0.271 | – | B12
41 | – | no binding (tested: 100 nM) | B13
42 | 2.04 | – | B14
